# Data taken from the supplement of paper PMC8728848.
# The other results are listed elsewhere or left out.
# Legend:
# Test in all cases: glycan array binding signal (z-score within array); higher = stronger binding
# Conditions in all cases: glycan notation: IUPAC condensed, linker removed
# [1] = molecular target: GlcNAc(b1-3)Gal(b1-4)GlcNAc(b1-3)Gal(b1-4)GlcNAc(b1-3)Gal(b1-4)GlcNAc(b1-3)Gal(b1-4)GlcNAc(b1-2)[GlcNAc(b1-3)Gal(b1-4)GlcNAc(b1-3)Gal(b1-4)GlcNAc(b1-3)Gal(b1-4)GlcNAc(b1-3)Gal(b1-4)GlcNAc(b1-6)]Man(a1-6)[GlcNAc(b1-3)Gal(b1-4)GlcNAc(b1-3)Gal(b1-4)GlcNAc(b1-3)Gal(b1-4)GlcNAc(b1-3)Gal(b1-4)GlcNAc(b1-2)Man(a1-3)]Man(b1-4)GlcNAc(b1-4)[Fuc(a1-6)]GlcNAc
# Outline: (§1)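 From the Consortium for Functional Glycomics database, 3228 arrays were curated, keeping only those whose protein sequence was available. Binding is given as a within-array Z-score averaged across arrays sharing a protein sequence and across linkers. Negative Z-scores can be read as non-binding.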
# [2] = molecular target: GlcNAc(b1-3)Gal(b1-4)GlcNAc(b1-3)Gal(b1-4)GlcNAc(b1-3)GalNAc
# Outline: as §1
# [3] = molecular target: GlcNAc(b1-3)Gal(b1-4)GlcNAc(b1-3)GalNAc
# Outline: as §1
# [4] = molecular target: GlcNAc(b1-3)Gal(b1-4)GlcNAc(b1-3)[GlcNAc(b1-3)Gal(b1-4)GlcNAc(b1-3)]GalNAc
# Outline: as §1
# [5] = molecular target: GlcNAc(b1-3)Gal(b1-4)GlcNAc(b1-6)[Gal(b1-3)]GalNAc
# Outline: as §1
# [6] = molecular target: GlcNAc(b1-3)Gal(b1-4)GlcNAc(b1-6)[GlcNAc(b1-3)Gal(b1-3)]GalNAc
# Outline: as §1
# [7] = molecular target: GlcNAc(b1-3)Gal(b1-4)GlcNAc(b1-6)[GlcNAc(b1-3)]Gal(b1-4)GlcNAc
# Outline: as §1
# [8] = molecular target: GlcNAc(b1-3)GalNAc
# Outline: as §1
# [9] = molecular target: GlcNAc(b1-3)Man
# Outline: as §1
# [10] = molecular target: GlcNAc(b1-3)[GlcNAc(b1-4)][GlcNAc(b1-6)]GlcNAc
# Outline: as §1
# [11] = molecular target: GlcNAc(b1-3)[GlcNAc(b1-6)]Gal(b1-4)GlcNAc
# Outline: as §1
# [12] = molecular target: GlcNAc(b1-3)[GlcNAc(b1-6)]GalNAc
# Outline: as §1
# [13] = molecular target: GlcNAc(b1-4)Gal(b1-4)GlcNAc
# Outline: as §1
# [14] = molecular target: GlcNAc(b1-4)GlcNAc
# Outline: as §1
# [15] = molecular target: GlcNAc(b1-4)GlcNAc(b1-4)GlcNAc
# Outline: as §1
# [16] = molecular target: GlcNAc(b1-4)GlcNAc(b1-4)GlcNAc(b1-4)GlcNAc(b1-4)GlcNAc
# Outline: as §1
# [17] = molecular target: GlcNAc(b1-4)GlcNAc(b1-4)GlcNAc(b1-4)GlcNAc(b1-4)GlcNAc(b1-4)GlcNAc
# Outline: as §1
# [18] = molecular target: GlcNAc(b1-4)[GlcNAc(b1-6)]GalNAc
# Outline: as §1
# [19] = molecular target: GlcNAc(b1-6)Gal(b1-4)GlcNAc
# Outline: as §1
# [20] = molecular target: GlcNAc(b1-6)GalNAc
# Outline: as §1
# [21] = molecular target: GlcNAc6S(b1-3)Gal(b1-4)GlcNAc
# Outline: as §1
# [22] = molecular target: Kdn(a2-3)Gal(b1-3)GalNAc
# Outline: as §1
# [23] = molecular target: Kdn(a2-3)Gal(b1-3)GlcNAc
# Outline: as §1
# [24] = molecular target: Kdn(a2-3)Gal(b1-4)Glc
# Outline: as §1
# [25] = molecular target: Kdn(a2-3)Gal(b1-4)GlcNAc
# Outline: as §1
# [26] = molecular target: Kdn(a2-3)Gal(b1-4)[Fuc(a1-3)]GlcNAc
# Outline: as §1
# [27] = molecular target: Kdn(a2-6)Gal(b1-4)GlcNAc
# Outline: as §1
# [28] = molecular target: Man(a1-2)Man(a1-2)Man(a1-3)Man
# Outline: as §1
# [29] = molecular target: Man(a1-2)Man(a1-2)Man(a1-6)[Man(a1-3)]Man
# Outline: as §1
# [30] = molecular target: Man(a1-2)Man(a1-3)Man
# Outline: as §1
# [31] = molecular target: Man(a1-2)Man(a1-3)[Man(a1-2)Man(a1-6)]Man
# Outline: as §1
# [32] = molecular target: Man(a1-2)Man(a1-3)[Man(a1-2)Man(a1-6)]Man(a1-6)[Man(a1-2)Man(a1-2)Man(a1-3)]Man
# Outline: as §1
# [33] = molecular target: Man(a1-2)Man(a1-3)[Man(a1-2)Man(a1-6)]Man(a1-6)[Man(a1-2)Man(a1-2)Man(a1-3)]Man(b1-4)GlcNAc(b1-4)GlcNAc
# Outline: as §1
# [34] = molecular target: Man(a1-2)Man(a1-3)[Man(a1-6)]Man(a1-6)[Man(a1-2)Man(a1-3)]Man(b1-4)GlcNAc(b1-4)GlcNAc
# Outline: as §1
# [35] = molecular target: Man(a1-2)Man(a1-6)[Man(a1-3)]Man(a1-6)[Man(a1-2)Man(a1-2)Man(a1-3)]Man
# Outline: as §1
# [36] = molecular target: Man(a1-2)Man(a1-6)[Man(a1-3)]Man(a1-6)[Man(a1-2)Man(a1-2)Man(a1-3)]Man(b1-4)GlcNAc(b1-4)GlcNAc
# Outline: as §1
# [37] = molecular target: Man(a1-3)[Man(a1-6)]Man
# Outline: as §1
# [38] = molecular target: Man(a1-3)[Man(a1-6)]Man(a1-6)[Man(a1-2)Man(a1-3)]Man(b1-4)GlcNAc(b1-4)GlcNAc
# Outline: as §1
# [39] = molecular target: Man(a1-3)[Man(a1-6)]Man(a1-6)[Man(a1-3)]Man
# Outline: as §1
# [40] = molecular target: Man(a1-3)[Man(a1-6)]Man(a1-6)[Man(a1-3)]Man(b1-4)GlcNAc(b1-4)GlcNAc
# Outline: as §1
# [41] = molecular target: Man(a1-3)[Man(a1-6)]Man(b1-4)GlcNAc(b1-4)GlcNAc
# Outline: as §1
# [42] = molecular target: Man(a1-3)[Man(a1-6)]Man(b1-4)GlcNAc(b1-4)[Fuc(a1-6)]GlcNAc
# Outline: as §1
# [43] = molecular target: Man(a1-6)Man
# Outline: as §1
# [44] = molecular target: Man(b1-4)GlcNAc
# Outline: as §1
# [45] = molecular target: MurNAc(b1-4)GlcNAc
# Outline: as §1
binder,measurement,setting,value
"LICBM33A (Lactococcus lactis), Q9CE94 (protein) MKKLLTGLLVAAGLLSVSLLIKTDTVSAHGYVQSPPARGYQGQLDSQSLGWTAAFNIYGNVISNPQSLEAPKGFPECGPADGRIASANGGLGQIGDFVLDNQTSSRWKKTSISTGSNIFTWKYTAPHKTTKWHYYMTKTGWDQNAPLKHSELELIGTINHDGSPATNNLSHTINIPTDRSGYHIVLAVWDVADTSNAFYNVIDINVNNKNASSQVFGPFL",glycan array binding signal (z-score),[1],-0.382
same,glycan array binding signal (z-score),[2],-0.342
same,glycan array binding signal (z-score),[3],-0.499
same,glycan array binding signal (z-score),[4],-0.2
same,glycan array binding signal (z-score),[5],1.98
same,glycan array binding signal (z-score),[6],-0.463
same,glycan array binding signal (z-score),[7],-0.551
same,glycan array binding signal (z-score),[8],-0.659
same,glycan array binding signal (z-score),[9],0.023
same,glycan array binding signal (z-score),[10],-0.619
same,glycan array binding signal (z-score),[11],-0.565
same,glycan array binding signal (z-score),[12],-0.909
same,glycan array binding signal (z-score),[13],-0.614
same,glycan array binding signal (z-score),[14],0.592
same,glycan array binding signal (z-score),[15],0.407
same,glycan array binding signal (z-score),[16],-0.337
same,glycan array binding signal (z-score),[17],0.08
same,glycan array binding signal (z-score),[18],-0.068
same,glycan array binding signal (z-score),[19],-0.043
same,glycan array binding signal (z-score),[20],0.954
same,glycan array binding signal (z-score),[21],0.72
same,glycan array binding signal (z-score),[22],0.04
same,glycan array binding signal (z-score),[23],-0.522
same,glycan array binding signal (z-score),[24],0.82
same,glycan array binding signal (z-score),[25],-0.667
same,glycan array binding signal (z-score),[26],0.288
same,glycan array binding signal (z-score),[27],2.03
same,glycan array binding signal (z-score),[28],-0.369
same,glycan array binding signal (z-score),[29],-0.156
same,glycan array binding signal (z-score),[30],-0.647
same,glycan array binding signal (z-score),[31],-0.559
same,glycan array binding signal (z-score),[32],-0.427
same,glycan array binding signal (z-score),[33],1.98
same,glycan array binding signal (z-score),[34],-0.219
same,glycan array binding signal (z-score),[35],-0.487
same,glycan array binding signal (z-score),[36],0.044
same,glycan array binding signal (z-score),[37],0.32
same,glycan array binding signal (z-score),[38],1.78
same,glycan array binding signal (z-score),[39],0.027
same,glycan array binding signal (z-score),[40],-0.43
same,glycan array binding signal (z-score),[41],0.527
same,glycan array binding signal (z-score),[42],-0.355
same,glycan array binding signal (z-score),[43],-0.318
same,glycan array binding signal (z-score),[44],-0.147
same,glycan array binding signal (z-score),[45],0.591
